Source: the antibiotic and cytotoxicity screens of Wong et al. (2023)
This is one part of the list.

Assays:
HSkMC = human skeletal muscle cells; experiment: cytotoxicity call (relative viability < 0.9); conditions: 10 µM
HepG2 = experiment: cytotoxicity call (relative viability < 0.9); conditions: 10 µM
S. aureus RN4220 = experiment: growth inhibition call (relative growth <= 0.2); conditions: 50 µM

SMILES | cytotoxicity call (HSkMC) | cytotoxicity call (HepG2) | growth inhibition call (S. aureus RN4220)
COc1ccc(S(=O)(=O)Nc2ccc3c(c2)C(=O)N([C@H](C)CO)C[C@H](C)[C@@H](CN(C)Cc2ccccc2)OCCCC[C@@H](C)O3)cc1 | inactive | inactive | inactive
COc1ccc(N2C(=O)N(CCc3ccc(OC)c(OC)c3)[C@@H]3[C@@H](Cc4ccccc4)[C@H]2C(=O)N3Cc2ccccc2)cc1 | inactive | inactive | inactive
O=C(C[C@H]1CC[C@H](NC(=O)c2ccc(F)cc2)[C@@H](CO)O1)NCc1ccncn1 | inactive | inactive | inactive
C[C@@H]1CN([C@H](C)CO)S(=O)(=O)c2ccc(C3=CCCC3)cc2O[C@@H]1CN(C)S(=O)(=O)c1ccc(F)cc1 | inactive | inactive | inactive
COc1ccc2c3c(n(c2c1)C)[C@@H](CO)N(C[C@]13CCN(CC1)CC1CCOCC1)C(=O)Cc1ccccn1 | inactive | inactive | inactive
CNCC(O)c1ccc(O)c(O)c1.O=C(O)C(O)C(O)C(=O)O (configuration not stated) | inactive | active | inactive
COc1ccc(S(=O)(=O)Nc2cccc3c2O[C@@H](CN(C)Cc2ccc(Cl)c(Cl)c2)[C@@H](C)CN([C@H](C)CO)C3=O)cc1 | inactive | inactive | inactive
COc1ccc(S(=O)(=O)N(C)C[C@H]2OCc3cnnn3CCCC(=O)N([C@@H](C)CO)C[C@H]2C)cc1 | inactive | inactive | inactive
C[C@@H]1CCCCO[C@@H](CN(C)C(=O)Nc2ccc(F)cc2)[C@H](C)CN([C@H](C)CO)C(=O)c2cc(NS(=O)(=O)c3cccs3)ccc2O1 | inactive | inactive | inactive
